# Experimental data taken from publication PMC4336329 (PLoS ONE, 2015).
# Out of some 310,000 compounds screened, about 14,000 (4.5%) showed an effect of 50% or more. The effect is printed as a negative number. The list shows a part of the results.
# Molecular target: human ether-à-go-go-related gene (hERG) potassium channel (human, UniProt Q12809)
# Test: primary screen, population patch clamp on CHO cells stably expressing hERG
# 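Also: peak tail current of the secondary pulse compared with the same well before compound.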
# human ether-à-go-go-related gene (hERG) potassium channel, sequence (Q12809 whole entry, looked up): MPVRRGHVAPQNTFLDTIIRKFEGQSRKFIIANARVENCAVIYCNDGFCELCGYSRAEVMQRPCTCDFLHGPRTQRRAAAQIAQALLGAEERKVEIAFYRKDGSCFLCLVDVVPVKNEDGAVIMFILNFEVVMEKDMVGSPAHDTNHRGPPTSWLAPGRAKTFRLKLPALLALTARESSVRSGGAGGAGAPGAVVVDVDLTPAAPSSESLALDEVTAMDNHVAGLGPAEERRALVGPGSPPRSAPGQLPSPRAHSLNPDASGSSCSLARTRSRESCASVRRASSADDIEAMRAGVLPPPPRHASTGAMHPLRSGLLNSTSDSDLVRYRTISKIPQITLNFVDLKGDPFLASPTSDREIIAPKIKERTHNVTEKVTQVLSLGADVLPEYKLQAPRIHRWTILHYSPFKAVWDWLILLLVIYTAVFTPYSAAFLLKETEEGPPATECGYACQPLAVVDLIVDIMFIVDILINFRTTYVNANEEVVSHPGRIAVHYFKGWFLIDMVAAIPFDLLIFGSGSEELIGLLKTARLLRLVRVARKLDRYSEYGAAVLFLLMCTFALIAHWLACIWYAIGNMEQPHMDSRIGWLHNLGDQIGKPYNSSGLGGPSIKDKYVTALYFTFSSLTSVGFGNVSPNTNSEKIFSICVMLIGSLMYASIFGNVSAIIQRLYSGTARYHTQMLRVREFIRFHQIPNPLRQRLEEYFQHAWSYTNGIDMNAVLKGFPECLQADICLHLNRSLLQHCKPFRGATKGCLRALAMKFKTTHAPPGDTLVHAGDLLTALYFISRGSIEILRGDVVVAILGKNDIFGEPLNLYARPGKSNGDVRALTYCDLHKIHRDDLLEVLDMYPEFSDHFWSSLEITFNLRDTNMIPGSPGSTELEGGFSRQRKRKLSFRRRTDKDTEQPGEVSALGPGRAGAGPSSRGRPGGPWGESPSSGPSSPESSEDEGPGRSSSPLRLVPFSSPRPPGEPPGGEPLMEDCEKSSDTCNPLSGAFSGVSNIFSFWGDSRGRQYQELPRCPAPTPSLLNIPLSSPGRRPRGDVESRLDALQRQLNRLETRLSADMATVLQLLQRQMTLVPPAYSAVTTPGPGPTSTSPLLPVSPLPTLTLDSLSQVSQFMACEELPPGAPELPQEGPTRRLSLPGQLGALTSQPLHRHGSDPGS
row,Compound,"hERG current change (%, negative = inhibition) at 10uM [%]"
1,Cc1cc(N2CCC(C)CC2)nc(-c2ccccc2O)n1,4.32
2,OC(CNc1nc(C(F)(F)F)nc2ccccc12)c1ccccc1 (centres unmarked),-17
3,CC(C)=CCC/C(C)=C/C=N/NC(=O)c1ccccc1[N+](=O)[O-],-4.43
4,Cc1cnc(C(=O)OCC(=O)N2CCN(S(=O)(=O)c3ccc(Cl)cc3)CC2)cn1,4.81
5,COc1cc2nc(CN3CCOCC3)n(CC(=O)N3CCCCCC3)c(=O)c2cc1OC,9.73
6,N#CC1(NC(=O)COc2cc(F)ccc2[N+](=O)[O-])CCCCC1,-0.195
7,Cc1ccc(S(=O)(=O)N2CCN(C(=O)CCCOc3cccc(C)c3)CC2)cc1,9.25
8,O=c1c2ccccc2nc(-c2ccc(Cl)cc2Cl)n1CCCn1ccnc1,-34.1
9,C/C(N)=C(/C#N)C(=O)CSc1nc2scc(-c3ccccc3)c2c(=O)n1C,18.6
10,O=C(NCc1ccc(Cl)cc1)C1CCCCN1S(=O)(=O)c1ccccc1 (centres unmarked),-29.5
11,O=C(CN1CCCCCCC1)Nc1ccc(Cl)cc1Cl,35.9
12,CCOC(=O)C1=C(C)NC(SCC(=O)OC)=C(C#N)C1c1ccc(C(=O)OC)cc1 (centres unmarked),-23.4
13,CCn1c(SCc2ccc(Cl)cc2)nnc1-c1ccccc1,-44.4
14,CO[C@H]1C=CO[C@@]2(C)Oc3c(C)c(O)c4c(O)c(c5c(c4c3C2=O)NC2(CCN(CC(C)C)CC2)N=5)=NC(=O)C(C)=CC=C[C@H](C)[C@H](O)[C@@H](C)[C@@H](O)[C@@H](C)[C@H](OC(C)=O)[C@@H]1C,6.88
15,N#Cc1cccc(NC(=O)CSc2nnc(C3CC3)n2C2CC2)c1,-52.4
16,Cc1ccc(C2=C/C(=C/c3cccnc3)C(=O)O2)c(C)c1,16.6
17,O=C(O)CCc1ccc(-c2ccc(F)cc2)n1CC(=O)O,-6.85
18,CCOC(=O)[C@@H]1[C@H]2COc3cc(OC)ccc3[C@@H]2N2C(=O)N(c3cccc(Cl)c3)C(=O)[C@]12C,19.9
19,COc1cc2c(cc1OC)C(C1C(=O)CC(C)CC1=O)N(C(=O)CCl)CC2 (centres unmarked),8.09
20,O=C1COc2ccc(C(=O)c3ccccc3C(=O)O)cc2N1,18.8
21,Cc1ccc(Cl)cc1N1CCN(C(=O)C2CCN(S(=O)(=O)c3c(C)nn(C)c3C)CC2)CC1,-12.5
22,CNC(=O)CSc1ncnc2c1cnn2-c1ccccc1,2.29
23,CN1CCN(c2nc(-c3ccc(Cl)cc3Cl)nc3ccccc23)CC1,-73.9
24,Cc1cc(O)ccc1C1(c2ccc(O)cc2C)OC(=O)c2ccccc21,-30.5
25,Cc1ccc(NC(=O)c2ccc(CSc3nccc(C)n3)cc2)cc1,-2.64
26,CN(C)CCCN(C(=O)COc1ccccc1)c1nc2cc3c(cc2s1)OCCO3,-45
27,COC(=O)c1ccc(Cn2cnc3c(cnn3-c3ccc(F)cc3)c2=O)o1,-8.65

row,Compound,"hERG current change (%, negative = inhibition) at 10uM [%]"
1,CC1(C)SC(=S)N(/N=C/c2ccc(O)cc2)C1N(O)C(=O)Nc1ccc([N+](=O)[O-])cc1 (centres unmarked),-10.2
2,COc1c(O)cc2oc(-c3ccc(O)c(O)c3)cc(=O)c2c1O,10.6
3,O=C(O)CN1C(=O)/C(=C\c2cc(Br)ccc2OCc2ccc(Cl)cc2Cl)SC1=S,15.9
4,CCOC(=O)c1c(NC(=O)c2ccccc2C(=O)O)sc2c1CCC2,-1.15
5,Cn1nc(C(=O)N2CCN(c3ccc(F)cc3)CC2)c2c1-c1ccccc1S(=O)(=O)C2,-54.3
6,C=CCC1C=C(C)CC(CC=C)N1 (centres unmarked),2.67
7,O=C(O)c1cccc2c1C(=O)c1ccc(N3CCCC3)cc1S2(=O)=O,9.94
8,COc1cc(S(=O)(=O)N2CCN(C(=O)c3ccco3)CC2)ccc1Cl,-1.02
9,COCc1c(C(=O)N2CCN(Cc3c(F)cccc3Cl)CC2)oc2ccccc12,-12.2
10,CSc1ccccc1NC(=O)CN(C)Cc1cc(=O)n2ccsc2n1,-47.9
11,CS(=O)(=O)c1sc2nc(-c3cccs3)cc(-c3ccccc3)c2c1N,15.8
12,CC1CCc2nn(CC(=O)NCc3ccco3)cc2C1 (centres unmarked),-0.548
13,CCn1c(=O)cc(OCC(=O)NCCCN2CC(C)CC(C)C2)c2ccccc21 (centres unmarked),-12.5
14,COc1ccc(NC(=O)Cn2nc(C(=O)O)c3ccccc3c2=O)cc1Cl,18.9
15,Oc1cc(NCc2cccnc2)ccc1-c1nc2ccccc2o1,17.1
16,COc1ccc(Cc2nnc(SCC(=O)N(c3ccccc3)C(C)C)n(N)c2=O)cc1,-16.8
17,CCOC(=O)Nc1ccc(C)cc1NC(=O)OCC,11.7
18,COc1cc(C(=O)N2CCN(c3ccccc3OC)CC2)c([N+](=O)[O-])cc1OC,18.5
19,O=C(O)C1=C[C@@H](C2CC2)C[C@@H](OCc2ccc(CO)cc2)O1,21.4
20,COc1ccc(CN2CSC(=S)N(Cc3ccc(OC)cc3)C2)cc1,2.37
21,COc1ccc2cnn(-c3ccccc3C)c(=O)c2c1OC,8.51
22,Cc1ccc(C)c(NC(=O)NCc2ccccn2)c1,13
23,COc1ccc(C(C)=O)cc1COC(=O)CCNS(=O)(=O)c1ccc(C)cc1,-32.9
24,CCN(CC(=O)Nc1ccccc1C(F)(F)F)C(=O)CSCC(=O)Nc1cc(C)on1,1.02
25,O=C(CSc1nnc(Cc2cccs2)n1CCc1ccccc1)N1CCCc2ccccc21,-24.1
26,O=C(NCc1ccncc1)C1CCN(S(=O)(=O)c2ccccc2)CC1,-8.83
